Read-outs that look alike come from different tables or passages of the source.
Target: human CB2 receptor (hCB2) (Homo sapiens, UniProt P34972)
Test: cell-based
Type: cell-based
Details: for +/− HCB2: agonist or inverse agonist at hCB2
[1] = groups >100 nM-10 μM and >10 μM, cAMP, CHO-K1 hCB2, read-out: EC50 HCB2

Chain of human CB2 receptor (hCB2) (P34972 whole entry): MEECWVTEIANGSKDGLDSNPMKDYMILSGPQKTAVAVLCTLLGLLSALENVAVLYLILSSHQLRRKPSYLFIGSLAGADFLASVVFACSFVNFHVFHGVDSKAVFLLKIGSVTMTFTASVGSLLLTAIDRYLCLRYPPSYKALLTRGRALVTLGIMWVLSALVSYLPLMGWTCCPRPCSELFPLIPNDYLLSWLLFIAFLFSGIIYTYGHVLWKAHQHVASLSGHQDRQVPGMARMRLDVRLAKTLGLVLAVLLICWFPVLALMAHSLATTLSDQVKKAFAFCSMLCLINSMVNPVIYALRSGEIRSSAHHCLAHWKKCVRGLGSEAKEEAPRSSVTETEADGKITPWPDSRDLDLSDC

Row | Compound | +/− HCB2 | other results
1 | CNC(=O)[C@@H](NC(=O)c1nc(-c2ccc(F)cc2F)n2c1CN(C)CC2)C(C)(C)C [Compound 248, (S)-3-(2,4-difluorophenyl)-N-(3,3-dimethyl-1-(methylamino)-1-oxobutan-2-yl)-7-methyl-5,6,7,8-tetrahydroimidazo[1,5-a]pyrazine-1-carboxamide] | + | –
2 | CNC(=O)[C@@H](NC(=O)c1nc(-c2ccccc2)n2c1CN(C)CCC2)C(C)(C)O [Compound 607, (S)-N-(3-hydroxy-3-methyl-1-(methylamino)-1-oxobutan-2-yl)-8-methyl-3-phenyl-6,7,8,9-tetrahydro-5H-imidazo[1,5-a][1,4]diazepine-1-carboxamide] | + | –
3 | CC(CO)NC(=O)c1nc(-c2ccccc2)n2c1CN(C)CC2 (stereo not drawn) [Compound 231, N-(1-hydroxypropan-2-yl)-7-methyl-3-phenyl-5,6,7,8-tetrahydroimidazo[1,5-a]pyrazine-1-carboxamide] | – | EC50 [1]: > 10000 nM
4 | CC(C)CN1CCn2c(-c3ccccc3)nc(C(=O)N3CCOCC3)c2C1 [Compound 70, (7-isobutyl-3-phenyl-5,6,7,8-tetrahydroimidazo[1,5-a]pyrazin-1-yl)(morpholino)methanone] | – | EC50 [1]: > 10000 nM
5 | CN1CCCn2c(-c3ccccc3)nc(C(=O)N[C@H](C(=O)NC3CCC3)C(C)(C)C)c2C1 [Compound 480, (S)-N-(1-(cyclobutylamino)-3,3-dimethyl-1-oxobutan-2-yl)-8-methyl-3-phenyl-6,7,8,9-tetrahydro-5H-imidazo[1,5-a][1,4]diazepine-1-carboxamide] | + | –
6 | CNC(=O)[C@@H](NC(=O)c1nc(-c2ccc(Cl)cc2F)n2c1CN(C)CC2)C(C)(C)C [Compound 241, (S)-3-(4-chloro-2-fluorophenyl)-N-(3,3-dimethyl-1-(methylamino)-1-oxobutan-2-yl)-7-methyl-5,6,7,8-tetrahydroimidazo[1,5-a]pyrazine-1-carboxamide] | + | –
7 | CNC(=O)[C@@H](NC(=O)c1nc(-c2ccccc2)n2c1CN(CCO)CC2)C(C)(C)C [Compound 153, (S)-N-(3,3-dimethyl-1-(methylamino)-1-oxobutan-2-yl)-7-(2-hydroxyethyl)-3-phenyl-5,6,7,8-tetrahydroimidazo[1,5-a]pyrazine-1-carboxamide] | + | –
8 | CN1CCn2c(-c3ccccc3)nc(C(=O)NC3(CO)CCCC3)c2C1 [Compound 235, N-(1-(hydroxymethyl)cyclopentyl)-7-methyl-3-phenyl-5,6,7,8-tetrahydroimidazo[1,5-a]pyrazine-1-carboxamide] | – | EC50: > 10000 nM
9 | CNC(=O)[C@@H](NC(=O)c1nc(-c2ccccc2)n2c1CN(C1CC1)CCC2)C(C)(C)C [Compound 199, (S)-8-cyclopropyl-N-(3,3-dimethyl-1-(methylamino)-1-oxobutan-2-yl)-3-phenyl-6,7,8,9-tetrahydro-5H-imidazo[1,5-a][1,4]diazepine-1-carboxamide] | + | –
10 | CNC(=O)[C@@H](NC(=O)c1nc(C2=CCCCCC2)n2c1CN(C)CCC2)C(C)(C)C [Compound 457, (S,E)-3-cycloheptenyl-N-(3,3-dimethyl-1-(methylamino)-1-oxobutan-2-yl)-8-methyl-6,7,8,9-tetrahydro-5H-imidazo[1,5-a][1,4]diazepine-1-carboxamide] | – | EC50: > 10000 nM
11 | CNC(=O)[C@@H](NC(=O)c1nc(-c2ccc(-c3ccccc3)cc2)n2c1CN(C)CC2)C(C)(C)C [Compound 265, (S)-3-(biphenyl-4-yl)-N-(3,3-dimethyl-1-(methylamino)-1-oxobutan-2-yl)-7-methyl-5,6,7,8-tetrahydroimidazo[1,5-a]pyrazine-1-carboxamide] | – | EC50: > 10000 nM
12 | CN1CCCn2c(-c3ccc(F)c(Cl)c3)nc(C(=O)N[C@@H](CC(C)(C)C)C(N)=O)c2C1 [Compound 587, (S)-N-(1-amino-4,4-dimethyl-1-oxopentan-2-yl)-3-(3-chloro-4-fluorophenyl)-8-methyl-6,7,8,9-tetrahydro-5H-imidazo[1,5-a][1,4]diazepine-1-carboxamide] | + | –

Reference: patent US7517874B2 (priority 2007, dated 2009)
